From the RNAGym collection of RNA variant scans (doi:10.1073/pnas.2313332121)
Variants at the background level are over-represented here.

B1: TPR 5TU (parent)
chain: GGAUCUUCUCGAUCUAACAAAAAAGACAAAUCUGCCACAAAGCUUGAGAGCAUCUUCGGAUGCAGAGGCGGCAGCCUUCGGUGGCGCGAUAGCGCCAACGUUCUCAACUAUGACACGCAAAACGCGUGCUCCGUUGAAUGGAGUUUAUCAUG

Variants of: B1
Experiment: polymerase ribozyme fitness, log enrichment relative to wild type (log ratio); higher = more active; in vitro selection for triplet polymerase activity
Summary of the method: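 Each subunit of a heterodimeric triplet polymerase ribozyme was represented by a PCR-built, transcribed mutant library that underwent triplicate single-round in vitro selection with frozen incubation at −7 °C. Extended constructs were recovered by gel excision, streptavidin-bead capture and RT-PCR, and Illumina sequencing of input and output libraries kept genotypes with ≥10 input reads and ≥1 read per output. Fitness is the logarithm of genotype enrichment relative to wild-type enrichment, from inverse-variance-weighted replicate averages, with a logarithm base of 2.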

Row | Variant | polymerase ribozyme fitness (log ratio)
1 | GGAUCUUCUCGAUCUAACAAAAAAGACAAAUCUGCCACAAAGCUUGAGGGCAUCUUCGGAUGCAGAGGCGGCAGCCUUCGGUGACGCGAUAGCGCCAACGUUCUCAACUAUGACUCGCAAAACGCGUGCUCCGUUGAAUGGAGUUUAUCAUU [A49G G84A A115U G152U] | ≤ -4.2
2 | GGAUCUUCUCGAUCUAACAAAAAAGACAAAUCUGCCACAAAGCUUGAGGGCAUCUUCGGAUGCAGAGGCGGCAGCCUUCGGUGGCCCGAUAGCGCCAACGUUCUCACCUAUGACACGCAAAACGAGUGCUCCGUUGAAUGGAGUUUAUCAUG [A49G G86C A107C C125A] | ≤ -4.2
3 | GGAUCUUCUCGAUCUAACAAAAAAGACAAAUCUGCCACAAAGCUUGAGGGCAUCUUCGGAUGCAGAGGCGGCAGCCUUCGGUGGCGCUAUAGCGCCAACGUUCUCAACUAUGACACGCACAACGCGUGCUCCGUUGAAUGGAGUUUAUCAUG [A49G G88U A120C] | ≤ -4.2
4 | GGAUCUUCUCGAUCUAACAAAAAAGACAAAUCUGCCACAAAGCUUGAGGGCAUCUUCGGAUGCAGAGGCGGCAGCCUUCGGUGGCGCGAUAUCGCCAACGUUCUCAACUAGGACACGCAAAACGCGUGCUCCGUUGAAUGGAGUUUAUCAUG [A49G G92U U111G] | ≤ -4.2
5 | GGAUCUUCUCGAUCUAACAAAAAAGACAAAUCUGCCACAAAGCUUGAGGGCAACUUCGGAUGCAGAGGCGGCAGCCUUCGGUGGCGCGAUAGCGCCAACGUUCUCAACUAUGACACGCAAAACGCGUGCUCCGUUGAAUGGAGUUUAUCAUG [A49G U53A] | -1.54
6 | GGAUCUUCUCGAUCUAACAAAAAAGACAAAUCUGCCACAAAGCUUGAGGGCAACUUCGGAUGCAGAGGCGGCAGCCUUCGGUGGCGGGAUAGCGCCAACGUUCUCAACUAUGACACGCAGAACGCGUGCUCCGUUGAAUGGAGUUUAUCAUG [A49G U53A C87G A120G] | ≤ -4.2
7 | GGAUCUUCUCGAUCUAACAAAAAAGACAAAUCUGCCACAAAGCUUGAGGGCAACUUCGGAUGCAGAGGCGGCAGCCUUCGGUGGCGCGAUAGAGCCAACGUUCUCAACUAUGACACGCAAAACGCGGGCUCCGUUGAAUGGAAUUUAUCAUG [A49G U53A C93A U127G G143A] | ≤ -4.2
8 | GGAUCUUCUCGAUCUAACAAAAAAGACAAAUCUGCCACAAAGCUUGAGGGCAACUUCGGAUGCAGAGGCGGCAGCCUUCGGUGGCGCGAUAGCGCCAACCUUCUCAACUAUGACACGCUAAACGCGUGCUCAGAUGAAUGGAUUUUAUCAUG [A49G U53A G100C A119U C132A U134A G143U] | ≤ -4.2
9 | GGAUCUUCUCGAUCUAACAAAAAAGACAAAUCUGCCACAAAGCUUGAGGGCAACUUCGGAUGCAGAGGCGGCAGCCUUCGGUGGCGCGAUAGCGCCAACGUUCUCAACUAUGACACGCAAAACGCGUGCUCCGUUGAAUGGAGGUUAUCAUG [A49G U53A U144G] | -0.883
10 | GGAUCUUCUCGAUCUAACAAAAAAGACAAAUCUGCCACAAAGCUUGAGGGCACCUUCGGAUGCAGAGGCGGCAGCCUUCGGUGGCGCGAUAGCGCCAUCGUUCUCAACUAUGACACGCAAGACGCGUGCUCCGUUGAAUGGAGUUUAUCAUG [A49G U53C A98U A121G] | -1.87
11 | GGAUCUUCUCGAUCUAACAAAAAAGACAAAUCUGCCACAAAGCUUGAGGGCAUCGUCGGAUGCAGAGGCGGCAGCCUUCGGUGGCGCAAUAGCGCCAACGUUCUCAACUAUGACACGCAAAACGCGUGCUCCGUUGAACGGAGUAUAUCAUG [A49G U55G G88A U139C U145A] | ≤ -4.2
12 | GGAUCUUCUCGAUCUAACAAAAAAGACAAAUCUGCCACAAAGCUUGAGGGCAUCUACGGCUGCAGAGGCGGCAGCCUUCGAUGGCGCGAUAGCGCCAACGUUCUCAACUAUGACACGCAAAACGCGUCCUCCGUUGAAUGGAGUUGAUCAUG [A49G U56A A60C G81A G128C U146G] | ≤ -4.2
13 | GGAUCUUCUCGAUCUAACAAAAAAGACAAAUCUGCCACAAAGCUUGAGGGCAUCUACGGAUGCAGCGCCGGCAGCCUUCGCUGGCGCGAUAGCGACAACGUUCUCAACUAUGACACGCAAAACGCGUGCUCCGUUGAAUGGAGUUUAUCAUG [A49G U56A A66C G68C G81C C95A] | ≤ -4.2
14 | GGAUCUUCUCGAUCUAACAAAAAAGACAAAUCUGCCACAAAGCUUGAGGGCAUCUACGGAUGCAGAGGCGGCAGCCUUCGCGGGCGCGAUAGUGCCAACGUUCUCAACUAUGACACGCAAACCGCGUGCUCCGUUGAAUGGAGUUUAUCAUG [A49G U56A G81C U82G C93U A122C] | ≤ -4.2
15 | GGAUCUUCUCGAUCUAACAAAAAAGACAAAUCUGCCACAAAGCUUGAGGGCAUCUACGGAUGCAGAGGCGGCAGCCUUCGGUAGCGCGAUAGCGCCAACGUUCUCAACUAUGACACGCAAAACGCGUGCUCCGUUGAAUUGAGUUUAUCAUG [A49G U56A G83A G140U] | ≤ -4.2
16 | GGAUCUUCUCGAUCUAACAAAAAAGACAAAUCUGCCACAAAGCUUGAGGGCAUCUUCGGAAGCAGAGGCGGCAGCCUUCGGUGGGGCGAUAGCGCCAACGUUCUCAACUAUGACACGCAAAACGCGUGCUCCGUUGAAUGGAGUUUAUCAUG [A49G U61A C85G] | ≤ -4.2
17 | GGAUCUUCUCGAUCUAACAAAAAAGACAAAUCUGCCACAAAGCUUGAGGGCAUCUUCGGAAGCAAAGGCCGCAGCCUUCGGUGGGGCGAUAGCGCCAACGUUCUCAACUAUGACACGCAAAACGCGUGCUCCGUUGAAUGGAGUUUAUCAUG [A49G U61A G65A G70C C85G] | ≤ -4.2
18 | GGAUCUUCUCGAUCUAACAAAAAAGACAAAUCUGCCACAAAGCUUGAGUGCCUCUUAGGAUGCAGAGGCGGCAGCCUUCGGUGGCGCGAUAGAGCCAACGUUCUCAACUAUGACACGCAAAACGCGUGCUCCGUUGAAUGGAGUUUAUCAUG [A49U A52C C57A C93A] | ≤ -4.2
19 | GGAUCUUCUCGAUCUAACAAAAAAGACAAAUCUGCCACAAAGCUUGAGUGCGUCUUCGGAUGCAGAGGCGGCAGCCUUCGGUGGCGCGAUAGCACCAACGUUCUUAACUAUGAUACGGAAAACGCGUGCUCCGUUGAAUAGACUUUAUCAUG [A49U A52G G94A C105U C114U C118G G140A G143C] | ≤ -4.2
